Data: publication PMC4336329 (PLoS ONE, 2015)
About 2,200 (0.71%) of roughly 310,000 compounds showed an effect of 50% or more. Effects have a minus sign here. This is one part of the list.

Biological target: human ether-à-go-go-related gene (hERG) potassium channel (human, UniProt Q12809)
Assay: primary screen, population patch clamp on CHO cells stably expressing hERG

Chain of human ether-à-go-go-related gene (hERG) potassium channel (Q12809 whole entry, looked up): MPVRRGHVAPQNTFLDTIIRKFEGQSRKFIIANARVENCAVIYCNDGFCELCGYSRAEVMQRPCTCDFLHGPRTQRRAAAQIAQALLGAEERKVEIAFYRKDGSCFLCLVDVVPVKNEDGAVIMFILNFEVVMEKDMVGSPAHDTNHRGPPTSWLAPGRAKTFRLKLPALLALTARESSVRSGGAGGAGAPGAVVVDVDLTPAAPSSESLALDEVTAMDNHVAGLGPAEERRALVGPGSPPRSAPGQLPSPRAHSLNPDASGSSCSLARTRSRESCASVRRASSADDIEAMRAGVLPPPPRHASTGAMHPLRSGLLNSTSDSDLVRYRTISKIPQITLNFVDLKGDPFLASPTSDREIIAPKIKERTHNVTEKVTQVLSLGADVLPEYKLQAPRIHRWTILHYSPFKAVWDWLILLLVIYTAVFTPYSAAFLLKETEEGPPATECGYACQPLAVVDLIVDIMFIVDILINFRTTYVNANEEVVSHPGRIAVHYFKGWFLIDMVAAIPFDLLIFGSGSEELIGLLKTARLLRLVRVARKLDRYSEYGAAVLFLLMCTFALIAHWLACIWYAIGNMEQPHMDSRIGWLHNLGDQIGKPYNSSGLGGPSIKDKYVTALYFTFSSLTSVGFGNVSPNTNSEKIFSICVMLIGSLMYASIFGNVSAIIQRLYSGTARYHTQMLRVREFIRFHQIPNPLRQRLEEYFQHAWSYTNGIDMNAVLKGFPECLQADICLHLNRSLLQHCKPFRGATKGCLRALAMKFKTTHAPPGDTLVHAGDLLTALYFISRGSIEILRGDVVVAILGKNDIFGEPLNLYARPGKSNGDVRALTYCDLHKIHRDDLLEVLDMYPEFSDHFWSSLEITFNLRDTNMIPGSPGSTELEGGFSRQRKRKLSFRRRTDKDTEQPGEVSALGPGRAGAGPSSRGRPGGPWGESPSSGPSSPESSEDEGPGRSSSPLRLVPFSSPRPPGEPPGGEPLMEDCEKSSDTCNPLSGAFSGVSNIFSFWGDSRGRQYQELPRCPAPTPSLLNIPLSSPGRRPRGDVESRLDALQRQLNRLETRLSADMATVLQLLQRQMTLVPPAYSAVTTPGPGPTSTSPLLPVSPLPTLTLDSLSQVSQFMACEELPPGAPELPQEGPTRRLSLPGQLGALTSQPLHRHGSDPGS

First: O=S(=O)(c1cccc(-c2nnco2)c1)N1CCCC1
Second: CCOc1ncccc1C(=O)Nc1ccc(Cl)c(S(=O)(=O)N2CCCC2)c1
The “hERG current change (%, negative = inhibition) at 1uM” value of the first is higher: 4.1% for the first, 2.41% for the second.

First: COc1cccc(/C=N/N2CCN(c3ccccc3OC)CC2)c1
Second: COc1ccccc1N1CCN(C(=O)c2cc(=O)c3cc(C)cc(C)c3o2)CC1
The “hERG current change (%, negative = inhibition) at 1uM” value of the first is higher: 2.68% for the first, -1.21% for the second.

First: CCC(=O)N1CCc2cc(S(=O)(=O)NC(C(=O)NCc3ccccc3)C(C)C)ccc21 (stereo not shown)
Second: CSc1ccccc1NC(=O)c1ccc2c(c1)CCN2S(C)(=O)=O
The “hERG current change (%, negative = inhibition) at 1uM” value of the first is higher: 14.5% for the first, 10.4% for the second.

Going from COc1ccc(OC(C)C(=O)NC2CC(C)(C)NC(C)(C)C2)cc1 (stereo not shown) to COc1ccc(NC2=NC(C)(C)CS2)cc1, the “hERG current change (%, negative = inhibition) at 1uM” value rises from -1.84% to 8.36%.

Compared with O=C(NCC1CCCO1)C1CCN(S(=O)(=O)c2ccc(Br)cc2)CC1 (stereo not shown), CC1CCN(C(=O)COC(=O)c2cc(S(=O)(=O)N3CCOCC3)ccc2Cl)CC1 is lower in “hERG current change (%, negative = inhibition) at 1uM” value: 2.01% for the first, -5.3% for the second.

Compared with CCn1c(SC(C)C(=O)OC)nnc1-c1c[nH]c2ccccc12 (stereo not shown), COc1ccc(CNC(=O)Cc2c[nH]c3ccccc23)cc1OC is higher in “hERG current change (%, negative = inhibition) at 1uM” value: -4.06% for the first, 12.9% for the second.

Compared with O=C(Cc1ccccc1)Nc1ccc(NC(=O)Cc2ccccc2)c(Cl)c1, CC(SCc1ccccc1)C(=O)Nc1ccccc1 (stereo not shown) is lower in “hERG current change (%, negative = inhibition) at 1uM” value: 26.2% for the first, 14.2% for the second.

First: Cc1cc(C)c2sc(N(CCCN(C)C)C(=O)c3ccc(Br)s3)nc2c1.Cl
Second: Cc1cc(NC(=O)COc2ccc(C)c(C)c2)no1
The “hERG current change (%, negative = inhibition) at 1uM” value of the first is lower: 7.12% for the first, 13.8% for the second.

First: CCOc1ccccc1NC(=O)Cn1c(=O)n(-c2ccccc2)c(=O)c2oc3ccccc3c21
Second: CCCOc1ccccc1NP(=O)(Oc1ccccc1)Oc1ccccc1
The “hERG current change (%, negative = inhibition) at 1uM” value of the first is lower: 8.94% for the first, 9.21% for the second.

Compared with Cc1ccc(NC(=O)CCOc2ccccc2C)cc1C, Cc1cccc(C(=O)Nc2ccc3c(c2)nc(C)n3C)c1 is higher in “hERG current change (%, negative = inhibition) at 1uM” value: 8.04% for the first, 8.9% for the second.

Compared with CCOC(=O)N1CCN(C(=O)C2CCN(S(C)(=O)=O)CC2)CC1, CCc1nc(N2CCN(C(=O)c3ccco3)CC2)c(C#N)c2c1COC(C)(C)C2 is lower in “hERG current change (%, negative = inhibition) at 1uM” value: 18.3% for the first, 6.75% for the second.

Compared with CCCOC(=O)c1ccc(Nc2nc(C)cc(=O)[nH]2)cc1, CCOc1ccc(C(=O)NNC(=O)CNC(=O)c2ccc(C)s2)cc1OC is higher in “hERG current change (%, negative = inhibition) at 1uM” value: 8.99% for the first, 12.2% for the second.

Compared with Br.N#Cc1ccc(OCC(=O)NN2Cc3ccccc3C2=N)cc1, COc1ccc(C(=O)NC(=S)NCc2ccccc2)cc1 is lower in “hERG current change (%, negative = inhibition) at 1uM” value: 12% for the first, -3% for the second.

Going from Cc1ccc(C2C3C(=O)N(c4ccc(C)cc4)C(=O)C3N3CCCN23)cc1 (stereo not shown) to CC1CCN(c2ccc(NC(=O)Cc3ccccc3)cc2)CC1, the “hERG current change (%, negative = inhibition) at 1uM” value rises from 10.9% to 14.8%.

Compared with Cc1ccc(Nc2nc(NCC3CCCO3)nc(N)c2[N+](=O)[O-])cc1C (stereo not shown), COc1ccc(NC(=O)c2sc3nc(C)nc(N4CCOCC4)c3c2C)c(OC)c1 is lower in “hERG current change (%, negative = inhibition) at 1uM” value: 16.3% for the first, 5.36% for the second.

First: Cc1ccccc1C(=O)N1CCN(c2ccccn2)CC1
Second: COC(=O)c1ccccc1NC(=O)CN1CCN(Cc2ccccc2)CC1
The “hERG current change (%, negative = inhibition) at 1uM” value of the first is higher: 6.38% for the first, -69.6% for the second.

First: O=C(NCC(=O)N1CCC2(CC1)NCCc1[nH]cnc12)c1cccc(Cl)c1
Second: C/C(Cn1nnc([N+](=O)[O-])n1)=N\NC(=O)c1cccc(Cl)c1
The “hERG current change (%, negative = inhibition) at 1uM” value of the first is higher: 14.5% for the first, 1.51% for the second.

Going from CCOc1cc(C(=O)Nc2ccc(N3CCOCC3)cc2)cc(Br)c1OC to C=C(C)CNC(=S)N/N=C/c1ccc(N2CCOCC2)cc1, the “hERG current change (%, negative = inhibition) at 1uM” value rises from 9.93% to 17.6%.

Going from COC(=O)C1=C(c2ccccc2OCc2ccccc2)C[C@@H]2CC[C@H]1N2C(=O)NCc1ccc([N+](=O)[O-])cc1 to CC1(C)C(=O)Nc2ccccc2N1C(=O)COC(=O)Cn1cnc2ccccc2c1=O, the “hERG current change (%, negative = inhibition) at 1uM” value rises from 1.54% to 7.15%.

Compared with COc1ccccc1OCCSc1ncnc2nc[nH]c12, CCN(c1ccccc1)S(=O)(=O)c1nnc(NC(=O)c2ccccc2OC)s1 is higher in “hERG current change (%, negative = inhibition) at 1uM” value: 7.35% for the first, 10.2% for the second.

First: CC(=O)NC1C(=O)N=C(SCC(=O)Nc2ccc(C(F)(F)F)cc2Cl)NC1=O (stereo not shown)
Second: Cc1csc(NC(=O)CSc2nnc(-c3ccco3)n2C)n1
The “hERG current change (%, negative = inhibition) at 1uM” value of the first is higher: 4.54% for the first, 0.983% for the second.

First: COCCNS(=O)(=O)c1ccccc1
Second: COCCNS(=O)(=O)c1cc(F)ccc1OC
The “hERG current change (%, negative = inhibition) at 1uM” value of the first is higher: 9.2% for the first, 4.59% for the second.

First: CC(C)c1ccc(N(CC(=O)NC(C)(C)C)C(=O)CCC(=O)Nc2nccs2)cc1
Second: CCCCOc1ccc(N(CC(=O)NCC2CCCO2)C(=O)CCC(=O)Nc2nccs2)cc1 (stereo not shown)
The “hERG current change (%, negative = inhibition) at 1uM” value of the first is lower: 8.79% for the first, 8.94% for the second.

Compared with COc1ccc(C2CC(=O)C(C=NCCN3CCN(C(=S)Nc4ccccc4)CC3)=C(O)C2)cc1OC (stereo not shown), COc1ccc(CC(=O)Nc2ccc(S(=O)(=O)Nc3ncccn3)cc2)cc1OC is higher in “hERG current change (%, negative = inhibition) at 1uM” value: 1.75% for the first, 7.38% for the second.

Compared with CC(C)Oc1cccc(C(=O)C2CCCN(Cc3ccc(Oc4ncccn4)cc3)C2)c1 (stereo not shown), COc1ccc(C2C(C(=O)Nc3cccnc3)=C(C)Nc3nc(-c4cccs4)nn32)cc1 (stereo not shown) is higher in “hERG current change (%, negative = inhibition) at 1uM” value: -7.28% for the first, -2.21% for the second.

First: C/C(N)=C(/C#N)C(=O)CSc1nnc(NC(C)C)s1
Second: CCCCc1nnc(NC(=O)CN(C)S(=O)(=O)c2ccc(C)cc2)s1
The “hERG current change (%, negative = inhibition) at 1uM” value of the first is higher: 13% for the first, 8.65% for the second.

Compared with CC(C)(C)NC(=O)CN(C(=O)CNC(=O)c1cccs1)c1ccc2c(c1)OCCO2, Cc1c(C(=O)N(Cc2cccs2)C2CCS(=O)(=O)C2)oc2ccccc12 (stereo not shown) is lower in “hERG current change (%, negative = inhibition) at 1uM” value: 18% for the first, -14.1% for the second.

Compared with CSCCC(NC(=O)c1cccc(C)c1)C(=O)OCN1C(=O)c2ccccc2C1=O (stereo not shown), O=C(NC1(O)C(=O)c2ccccc2C1=O)c1ccccc1 is higher in “hERG current change (%, negative = inhibition) at 1uM” value: 3.99% for the first, 9.94% for the second.

Going from Cc1cc(C)cc(NC(=O)C(=O)NCCCN2CCCC2=O)c1 to CCCCN(CCCC)CCNC(=O)CN1C(=O)COc2ccc(S(=O)(=O)N3CCOCC3)cc21, the “hERG current change (%, negative = inhibition) at 1uM” value falls from -0.122% to -0.559%.

First: Cc1ccc2oc(/N=C(\N)NC(=O)C(C)(C)C)nc2c1
Second: CC(C)(C)/C(O)=C/c1nc2cc(Cl)ccc2oc1=O
The “hERG current change (%, negative = inhibition) at 1uM” value of the first is higher: 13.9% for the first, 10.2% for the second.

First: C=CCn1c(O)c(N=Nc2c(C)n(C)n(-c3ccccc3)c2=O)c(=O)[nH]c1=S
Second: C=CCn1c(C)cc(C(=O)CSc2nc3ccccc3c(=O)[nH]2)c1C
The “hERG current change (%, negative = inhibition) at 1uM” value of the first is lower: -2.86% for the first, 9.6% for the second.

First: CC1Cc2nc(SCC(=O)Nc3ccc4c(c3)OCO4)n(CCc3ccccc3)c(=O)c2S1 (stereo not shown)
Second: Cc1c(NC(=O)CN2c3ccccc3CC2C)c(=O)n(-c2ccccc2)n1C (stereo not shown)
The “hERG current change (%, negative = inhibition) at 1uM” value of the first is higher: 16.8% for the first, 8.44% for the second.

Compared with Cc1ccc2c(c1)-c1cc(C)nn1C(c1sccc1C)N2 (stereo not shown), Cc1ccc2c(c1)NC(=O)c1cccnc1N2 is higher in “hERG current change (%, negative = inhibition) at 1uM” value: -8.48% for the first, -7.78% for the second.

Compared with O=C(NC1CCCCCC1)c1cc(S(=O)(=O)N2CCC3(CC2)OCCO3)ccc1F, O=C(Nc1nc(-c2ccccn2)cs1)c1ccc(S(=O)(=O)N2CCCCC2)cc1 is lower in “hERG current change (%, negative = inhibition) at 1uM” value: 6.21% for the first, 5.29% for the second.

Compared with O=C(Cc1ccc(-n2cccc2)cc1)N1CCc2ccccc21, Cn1cc(CN2CCC(n3nccc3NC(=O)Cc3ccccc3)CC2)cn1 is lower in “hERG current change (%, negative = inhibition) at 1uM” value: 9.59% for the first, 6.09% for the second.

Compared with COc1ccc(OCC(O)CN2CCNCC2)cc1.Cl (stereo not shown), Cl.Nc1ccc(C(=O)N/N=C2/CN3CCC2CC3)cc1 is lower in “hERG current change (%, negative = inhibition) at 1uM” value: 14.6% for the first, 11.5% for the second.

Compared with CCc1ccc(NC(=O)c2ccc3c(c2)C(=O)N(CCOC)C3Nc2ccc(CC)cc2)cc1 (stereo not shown), CCN(CC)C(=O)c1ccc(NC(=O)c2sccc2-c2ccccc2)cc1 is higher in “hERG current change (%, negative = inhibition) at 1uM” value: 7.04% for the first, 9.83% for the second.

First: O=C1CCCc2cc3c(cc21)CC1(C3)Cc2cc3c(cc2C1)C(=O)CCC3
Second: CC(C)(CNC(=O)CC1C(=O)NCCN1Cc1cccc(F)c1)N1CCOCC1 (stereo not shown)
The “hERG current change (%, negative = inhibition) at 1uM” value of the first is higher: 14.4% for the first, 10.5% for the second.

Compared with CCCCn1c(SCC(=O)OCC)nc2c1c(=O)[nH]c(=O)n2C, CCCn1c(=O)c2ccccc2n2c(SCCOc3ccc(C)cc3)nnc12 is higher in “hERG current change (%, negative = inhibition) at 1uM” value: -9.19% for the first, 8.9% for the second.

First: CCOP(=O)(OCC)C(NC(=O)Nc1ccc(Cl)cc1)C(N)=O (stereo not shown)
Second: CCOC(=O)N=S(N)(=O)c1ccccc1 (stereo not shown)
The “hERG current change (%, negative = inhibition) at 1uM” value of the first is higher: 9.12% for the first, -12.7% for the second.

Compared with O=C(CC1C(=O)NCCN1Cc1c(F)cccc1Cl)NCCCn1ccnc1 (stereo not shown), O=C(NC1CCCCC1)C(c1cccnc1)N(C(=O)c1csnn1)c1ccc(F)cc1 (stereo not shown) is higher in “hERG current change (%, negative = inhibition) at 1uM” value: 11.4% for the first, 13.1% for the second.

First: COc1cc(C2NC(=O)NC(O)(C(F)(F)F)C2C(C)=O)cc(OC)c1OC (stereo not shown)
Second: O=C(c1cccnc1)N1C2C=CC(C2)C1(C(F)(F)F)C(F)(F)F (stereo not shown)
The “hERG current change (%, negative = inhibition) at 1uM” value of the first is lower: 6.64% for the first, 12.7% for the second.

Compared with COc1ccc2c(c1)oc(=O)c1ccccc12, Cc1cc(Nc2ccccc2)n(CCOC(=O)COc2ccccc2)n1 is higher in “hERG current change (%, negative = inhibition) at 1uM” value: -13.9% for the first, 11.8% for the second.

Going from CSCC[C@H](NC(=O)[C@@H]1Cc2ccccc2CN1)C(=O)NCC1CCC(C(=O)O)CC1.Cl (stereo partly shown) to Cc1nn(C)c(Oc2cccc(Cl)c2)c1C(=O)O, the “hERG current change (%, negative = inhibition) at 1uM” value rises from -6.65% to -0.157%.
